The whole screen tested about 310,000 compounds, of which about 2,200 (0.71%) showed an effect of 50% or more. Effects have a minus sign here. This is one part of the list.

The source of these data is PMC4336329 (PLoS ONE, 2015).

For this assay, the target named is human ether-à-go-go-related gene (hERG) potassium channel (human, UniProt Q12809). Briefly: primary screen, population patch clamp on CHO cells stably expressing hERG.
Chain of human ether-à-go-go-related gene (hERG) potassium channel (Q12809 whole entry, looked up): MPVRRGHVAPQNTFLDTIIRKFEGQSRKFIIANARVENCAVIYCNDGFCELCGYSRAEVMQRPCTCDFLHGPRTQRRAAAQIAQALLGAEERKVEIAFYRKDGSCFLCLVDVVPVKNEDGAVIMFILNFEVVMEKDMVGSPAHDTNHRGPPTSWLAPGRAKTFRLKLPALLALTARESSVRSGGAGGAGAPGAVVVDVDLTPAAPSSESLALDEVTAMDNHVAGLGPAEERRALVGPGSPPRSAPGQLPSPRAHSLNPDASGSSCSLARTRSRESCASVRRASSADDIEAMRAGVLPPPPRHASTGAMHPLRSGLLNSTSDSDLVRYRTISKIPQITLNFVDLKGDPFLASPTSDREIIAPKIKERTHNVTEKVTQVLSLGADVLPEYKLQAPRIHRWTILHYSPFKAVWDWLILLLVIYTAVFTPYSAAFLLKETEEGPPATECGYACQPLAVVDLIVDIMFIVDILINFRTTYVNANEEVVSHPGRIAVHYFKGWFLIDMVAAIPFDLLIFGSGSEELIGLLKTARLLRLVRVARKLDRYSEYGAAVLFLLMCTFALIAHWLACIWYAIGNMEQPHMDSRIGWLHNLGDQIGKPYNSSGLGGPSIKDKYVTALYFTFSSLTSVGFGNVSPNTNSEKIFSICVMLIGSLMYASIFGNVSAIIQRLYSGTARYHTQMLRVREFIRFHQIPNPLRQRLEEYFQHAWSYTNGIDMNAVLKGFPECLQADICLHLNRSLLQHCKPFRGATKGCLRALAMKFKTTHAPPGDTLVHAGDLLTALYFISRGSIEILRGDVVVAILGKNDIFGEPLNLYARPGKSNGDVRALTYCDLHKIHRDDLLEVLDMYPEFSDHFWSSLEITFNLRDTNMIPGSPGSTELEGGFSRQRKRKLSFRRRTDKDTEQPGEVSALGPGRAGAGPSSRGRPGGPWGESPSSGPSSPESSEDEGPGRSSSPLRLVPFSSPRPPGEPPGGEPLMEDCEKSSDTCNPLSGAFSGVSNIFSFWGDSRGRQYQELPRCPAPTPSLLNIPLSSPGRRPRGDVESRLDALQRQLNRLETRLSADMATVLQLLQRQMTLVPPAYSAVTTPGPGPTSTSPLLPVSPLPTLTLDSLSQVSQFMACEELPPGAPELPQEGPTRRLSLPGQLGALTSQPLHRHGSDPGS
For the compound `Oc1ccc(C(=S)N2CCCC2)cc1`, the “hERG current change (%, negative = inhibition) at 1uM” value turned out to be 13%.
In the case of `CC(NC(=O)c1cn(C)c2ccc(S(=O)(=O)N3CCCC3)cc2c1=O)c1ccc2c(c1)OCCO2` (stereo not drawn), the “hERG current change (%, negative = inhibition) at 1uM” value stood at 17.3%.
For `COc1cc(C(C)=O)ccc1OCC(=O)NCC1(N2CCCCC2)CCCCC1`, the “hERG current change (%, negative = inhibition) at 1uM” value is given as 7.69%.
Under `O=C(Nc1ccc(F)cc1)N1CCN(CCc2ccccc2)CC1` stands -9.52%; under `CCOc1ccc(OCc2ccc(C(=O)N/N=C(\C)c3ccccn3)cc2)cc1`, 18%; under `COc1ccc(C(=O)NCC(=O)OCC(=O)c2ccc3c(c2)NC(=O)CO3)cc1OC`, 19.3%.
The same measure for `Cc1ccc(C(c2sc3nc(C)nn3c2O)N2CCOCC2)cc1` (stereo not drawn): 11%; for `Cc1ccccc1NC(=O)COc1nsnc1N1CCOCC1`: 7.78%.
As to `CCC1(c2ccccc2)NC(=O)N(CC(=O)Nc2ccc(S(=O)(=O)N3CC(C)CC(C)C3)cc2)C1=O` (stereo not drawn), the “hERG current change (%, negative = inhibition) at 1uM” value worked out at 17.4%.
Under `COc1cccc(NC(=O)CN(C)C(=O)c2cccc(S(=O)(=O)N3CCN(c4ccccc4)CC3)c2)c1` stands 8.29%; under `CCc1cccc(CC)c1NC(=O)CN1CCN(c2ccccc2)CC1.Cl`, 5.34%; under `CC(C)(C)c1ccc(C(=O)c2c[nH]c(C(=O)O)c2)cc1`, 10.8%.
Under `O=C(CN1C(=O)c2ccccc2S1(=O)=O)N1CCN(Cc2ccc3c(c2)OCO3)CC1` stands 2.9%.
Turning to `Cc1nn(-c2ccc(F)cc2)c(Cl)c1/C=C/C(=O)N1CCNC(=O)C1`, the “hERG current change (%, negative = inhibition) at 1uM” value was found to be 8.9%.
The same measure for `O=C(Nc1ccccc1N1CCN(c2ccccc2)CC1)C12CC3CC(CC(C3)C1)C2`: -4.28%.
As for `O=C(NCc1ccccc1)c1nc2ccccc2s1`, the “hERG current change (%, negative = inhibition) at 1uM” value worked out at 16.5%.
Take `Cc1ccc(C(=O)NCCSc2snnc2C)cc1`: the “hERG current change (%, negative = inhibition) at 1uM” value is 15.5%.
The same measure for `Cc1cc(C)cc(C(=O)NCC(=O)OCC(=O)NCc2ccco2)c1`: 5.8%.
The same measure for `COc1ccc(-c2noc(CCC(=O)N3CCN(c4cc(C)ccc4C)CC3)n2)cc1`: 5.56%; for `CC(C)[C@H](NC(=O)c1ccccc1)C(=O)OCC(=O)N1CC2(C)CC1CC(C)(C)C2` (stereo partly drawn): -5.59%; for `CCOc1ccc(CNC(=O)C(=O)c2cn(CC(=O)N3CCOCC3)c3ccccc23)cc1OC`: 9.36%.
On to `O=c1nc2ccccc2c2n1CC(CN1CCN(c3ccccc3F)CC1)N2` (stereo not drawn), for which the “hERG current change (%, negative = inhibition) at 1uM” value was -20.7%.
As for `O=C(CSc1ncccn1)NC1CCS(=O)(=O)C1` (stereo not drawn), the “hERG current change (%, negative = inhibition) at 1uM” value was determined as 3.19%.
Regarding `c1cncc(Nc2nc(-c3cccnc3)cs2)c1`, the “hERG current change (%, negative = inhibition) at 1uM” value is 5.1%.
As to `CC1C(=O)N2CCCc3cc(NC(=O)COc4ccccc4)cc1c32` (stereo not drawn), the “hERG current change (%, negative = inhibition) at 1uM” value is given as -3.46%.
Turning to `CCOc1ccccc1OCC(=O)NNC(=O)Cn1cnc2c1c(=O)n(C)c(=O)n2C`, the “hERG current change (%, negative = inhibition) at 1uM” value is 14.2%.
For `COc1ccc(/C(N)=N/OC(=O)c2cccc([N+](=O)[O-])c2)cc1`, the “hERG current change (%, negative = inhibition) at 1uM” value came to 12.8%.
Regarding `CCNC(=O)NC(=O)C(C)OC(=O)c1oc2ccc(OC)cc2c1C` (stereo not drawn), the “hERG current change (%, negative = inhibition) at 1uM” value is reported as 9.73%.
On to `Cc1ccc(C(=O)NCc2ccco2)cc1S(=O)(=O)Nc1cccc(Cl)c1`, for which the “hERG current change (%, negative = inhibition) at 1uM” value was determined as 3.98%.
For the compound `Cc1cc(C)cc(NC(=O)CSc2nnc(CNC(=O)c3ccco3)o2)c1`, the “hERG current change (%, negative = inhibition) at 1uM” value was determined as 16.4%.
The same measure for `O=C(NCCc1ccccc1)[C@@H]1CC=C[C@@H]2CCN(C3CCCCC3)C(=O)[C@@H]21`: 14.5%; for `CC1=C(C)CC(C(=O)Nc2nc(-c3ccc(F)cc3)c(C)s2)C(C(=O)O)C1` (stereo not drawn): 17.3%; for `CCOC(=O)c1c(/N=C/C2C(=O)CCCC2=O)sc2c1CCCC2`: 8.94%.
Consider `Cc1ccc(N2C(=O)c3ccccc3C(C)(C)C2=O)cc1`, for which the “hERG current change (%, negative = inhibition) at 1uM” value worked out at 9.83%.
Under `CNCCOc1nc(N2CCOCC2)nc(C)c1[N+](=O)[O-]` stands 10.1%.
With `O=C(CSc1nc2ccccc2s1)NC1CCS(=O)(=O)C1` (stereo not drawn), the “hERG current change (%, negative = inhibition) at 1uM” value was found to be 11.8%.
For `S=C(NC1CC1)SCc1ccco1`, the “hERG current change (%, negative = inhibition) at 1uM” value worked out at 5.89%.
The same measure for `COc1ccc(S(=O)(=O)N2CCC(C(=O)NCc3ccncc3)CC2)cc1`: 8.11%.
Under `COc1ccc(NC(=O)/C(C#N)=C/c2c(C)nn(-c3ccc(F)cc3)c2Cl)cc1OC` stands 5.41%; under `Cc1c(C(=O)NN)sc(=S)n1C`, 12%; under `O=[N+]([O-])c1cccc(C(=S)N2CCCC2)c1`, 10.8%.
As for `O=C(NCc1cccs1)C1CCCN1C(=O)Nc1ccccc1Cl` (stereo not drawn), the “hERG current change (%, negative = inhibition) at 1uM” value stood at 10.5%.
Under `COCCNc1nnc(SCC(=O)NC(=O)c2ccccc2OC)s1` stands 11.2%; under `COc1ccc(C2C(C(=O)N3CCCCC3)c3ccccc3C(=O)N2C)cc1` (stereo not drawn), 9.56%; under `Cc1nnc(NCCc2ccccc2)[nH]c1=O`, -16.7%.
The same measure for `COc1cccc(OC)c1C(=O)Nc1ccc(C)cc1C(=O)c1ccccc1`: 16.8%.
On to `COc1cccc(CNC(=O)CCS(=O)(=O)c2ccc3c(c2)oc(=O)n3C)c1`, for which the “hERG current change (%, negative = inhibition) at 1uM” value is on record as 15.3%.
The same measure for `CCn1c(SCC(=O)Nc2nc(-c3ccccc3)cs2)nnc1-c1ccccc1`: -13.3%; for `CCCC(C)NC(=O)c1ccc(F)cc1` (stereo not drawn): 12.3%; for `Fc1ccc(Nc2ccnc(Nc3ccc(F)cc3)n2)cc1`: 14.4%.
Under `Nc1nc(-c2ccccc2)c(-c2ccccc2)s1` stands 12.2%; under `COc1cccc(N2CCN(c3cnc4ccccc4n3)CC2)c1`, 4.79%.
In the case of `CC(C)(C)NC(=O)Cn1c(-c2nonc2N)nc2ccccc21`, the “hERG current change (%, negative = inhibition) at 1uM” value is listed as 11.2%.
Turning to `Cc1ccc(C(=O)c2c(NC(=O)c3ccncc3)sc3c2CCCC3)cc1`, the “hERG current change (%, negative = inhibition) at 1uM” value was determined as 12%.
The same measure for `COc1cccc(CNS(=O)(=O)c2cc3c(cc2C)n(C)c(=O)c(=O)n3C)c1`: 2.13%; for `O=C(CN1C(=O)NC2(CCCCCC2)C1=O)NCCc1ccccc1`: 12.9%; for `O=C(Cc1ccccc1)N1CCN(C2CCCCCC2)CC1.O=C(O)C(=O)O`: 4.29%.
